According to the supplement of paper PMC4967469:
By IC50 is meant the dose at which the fit gives 50% viability; a limit (>, <) means that the fit lies beyond the doses tested. The AUC spans the tested range (256-fold, ending at the top dose) of the same fit; it is 1 without any effect and falls as sensitivity rises. For part of these data: Any top dose called inferred comes from the curve model; the source does not state it.

How the values were obtained:
Assay in all cases: Viability of human cancer cell lines after 72 h of drug (GDSC screen)
[1] = compound: CC(=O)Nc1nc(C)c(-c2ccc(Cl)c(S(=O)(=O)NCCO)c2)s1 [PIK-93]; settings: top dose 20 µM
Method: (§1)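 Human cancer cell lines in 384-well plates, medium with 10% serum, drug for 72 h over a 256-fold dose range (nine 2-fold or five 4-fold steps up to the top dose). Adherent lines were fixed and stained with the nucleic acid dye Syto60, suspension lines read with resazurin; signal relative to control wells, capped at 0 and 100%. One two-parameter sigmoid per drug and line, fitted in a mixed model over all curves with the slope shared within a line.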

[2] = compound: Cn1cc(/C=C2\C(=O)Nc3cccnc32)c2ccccc21 [GW 441756]; settings: top dose 2 µM; top dose inferred
Method: as §1

[3] = compound: COc1cc(/C=C/C(=O)N2CCC=CC2=O)cc(OC)c1OC [piperlongumine]; settings: top dose 10 µM
Method: as §1

[4] = compound: CC1(C)CCC(c2ccc(Cl)cc2)=C(CN2CCN(c3ccc(C(=O)NS(=O)(=O)c4ccc(N[C@H](CCN5CCOCC5)CSc5ccccc5)c(S(=O)(=O)C(F)(F)F)c4)cc3)CC2)C1 [ABT-263]; settings: top dose 2 µM; top dose inferred
Method: as §1

Cell Line	AUC [1]	IC50 [1] [µM]	AUC [2]	IC50 [2] [µM]	AUC [3]	IC50 [3] [µM]	AUC [4]	IC50 [4] [µM]
OVTOKO (ovary, adherent)	0.835	18.5	0.941	> 2	0.714	3.01	0.759	0.882
P12-ICHIKAWA (T-cell lymphoblastic leukaemia, suspension)	0.485	1.15	0.994	> 2	0.85	5.1	0.371	0.0601
PA-TU-8902 (pancreas, adherent)	0.662	3.83	0.984	> 2	0.72	2.95	0.979	> 2
PANC-02-03 (pancreas, adherent)	0.626	2.99	0.971	> 2	0.79	5.46	0.933	> 2
PANC-03-27 (pancreas, adherent)	0.708	4.63	0.988	> 2	0.776	3.72	0.956	> 2
PANC-04-03 (pancreas, adherent)	0.939	> 20	0.978	> 2	0.778	6.95	0.961	> 2
PC-3 [JPC-3] (lung adenocarcinoma, adherent)	0.873	> 20	0.965	> 2	0.773	5.2	0.919	> 2
PC-14 (lung adenocarcinoma, adherent)	0.899	> 20	0.99	> 2	0.834	5.54	0.987	> 2
PCI-4B (head and neck, adherent)	0.865	16.2	0.972	> 2	0.605	1.2	0.967	> 2
PCI-6A (head and neck, adherent)	0.743	6.09	0.98	> 2	0.977	> 10	0.886	> 2
PCI-15A (head and neck, adherent)	0.979	> 20	0.871	1.91	0.819	5.75	0.845	1.47
PCI-30 (head and neck, adherent)	0.918	> 20	0.983	> 2	0.791	5.64	0.942	> 2
PE/CA-PJ15 (head and neck, adherent)	0.917	> 20	0.97	> 2	0.696	2.33	0.941	> 2
PEO1 (ovary, adherent)	0.812	11.3	0.85	1.61	0.754	3.49	0.953	> 2
PFSK-1 (medulloblastoma, adherent)	0.807	11	0.853	1.71	0.695	2.29	0.791	0.959
PL4 (pancreas, adherent)	0.936	> 20	0.974	> 2	0.758	3.59	0.905	> 2
QGP-1 (pancreas, adherent)	0.824	> 20	0.974	> 2	0.943	> 10	0.961	> 2
RCC-AB (kidney, adherent)	0.802	13.6	0.955	> 2	0.665	2.09	0.934	> 2
RCC-ER (kidney, adherent)	0.986	> 20	0.901	> 2	0.826	7.07	0.894	> 2
RCC-FG2 (kidney, adherent)	0.872	> 20	0.86	> 2	0.784	5.55	0.901	> 2
RCC-JF (kidney, adherent)	0.812	12.5	0.932	> 2	0.744	3.47	0.934	> 2
RCC-JW (kidney, adherent)	0.838	14	0.901	> 2	0.677	1.98	0.83	1.3
RCC-MF (kidney, adherent)	0.596	2.48	0.797	1.29	0.689	2.5	0.568	0.203
RCM-1 (large intestine, adherent)	0.953	> 20	0.985	> 2	0.956	> 10	0.872	> 2

Cell Line	AUC [1]	IC50 [1] [µM]	AUC [2]	IC50 [2] [µM]	AUC [3]	IC50 [3] [µM]	AUC [4]	IC50 [4] [µM]
RERF-LC-KJ (lung adenocarcinoma, adherent)	0.913	> 20	0.788	0.906	0.849	7.88	0.98	> 2
RERF-LC-MS (lung adenocarcinoma, adherent)	0.786	8.87	0.96	> 2	0.814	5.65	0.987	> 2
RERF-LC-Sq1 (lung squamous cell carcinoma, adherent)	0.911	> 20	0.921	> 2	0.945	> 10	0.798	1.52
RH-41 (rhabdomyosarcoma, adherent)	0.935	> 20	0.991	> 2	0.661	1.61	0.726	0.48
RKN (ovary, adherent)	0.842	15.2	0.982	> 2	0.769	4	0.979	> 2
RO82-W-1 (thyroid, adherent)	0.937	> 20	0.983	> 2	0.825	8.35	0.966	> 2
RPMI-2650 (head and neck, adherent)	0.856	18.3	0.985	> 2	0.731	3.03	0.917	> 2
RPMI-7951 (melanoma, adherent)	0.808	9.93	0.948	> 2	0.631	1.42	0.879	1.94
RT4 (bladder, adherent)	0.538	1.59	0.909	> 2	0.808	5.5	0.987	> 2
RVH-421 (melanoma, adherent)	0.77	10.5	0.97	> 2	0.696	2.74	0.903	> 2
SAS (head and neck, adherent)	0.889	> 20	0.972	> 2	0.701	2.48	0.962	> 2
SBC-3 (small cell lung carcinoma, adherent)	0.697	4.21	0.974	> 2	0.698	2.12	0.989	> 2
SBC-5 (small cell lung carcinoma, adherent)	0.936	> 20	0.993	> 2	0.797	3.74	0.993	> 2
SCC-9 (head and neck, adherent)	0.706	5.67	0.979	> 2	0.82	7.88	0.916	> 2
SCC-25 (head and neck, adherent)	0.797	10.9	0.983	> 2	0.806	5.88	0.942	> 2
SF295 (glioma, adherent)	0.837	14.9	0.982	> 2	0.779	4.42	0.937	> 2
SISO (cervix, adherent)	0.882	19.6	0.967	> 2	0.642	1.52	0.975	> 2
SJRH30 (rhabdomyosarcoma, adherent)	0.901	> 20	0.886	> 2	0.718	2.65	0.979	> 2
SK-GT-4 (oesophagus, adherent)	0.75	7.93	0.907	> 2	0.83	8.5	0.872	> 2
SK-MEL-3 (melanoma, adherent)	0.781	9.71	0.961	> 2	0.933	> 10	0.984	> 2
SK-MEL-5 (melanoma, adherent)	0.978	> 20	0.943	> 2	0.803	6.34	0.929	> 2
SK-MEL-30 (melanoma, adherent)	0.877	> 20	0.985	> 2	0.8	5.15	0.96	> 2
SK-MES-1 (lung squamous cell carcinoma, adherent)	0.96	> 20	0.985	> 2	0.82	6.42	0.985	> 2
SK-MG-1 (glioma, adherent)	0.824	12	0.932	> 2	0.783	4.28	0.942	> 2
